{"sequences": {"note": "Chains of the proteins cited; added tags and fusions are not shown. Lines headed by an entry give the natural chain unless they say otherwise; changes in a name come on top. A line that says so, or that is headed by a name, gives the form on record, which may keep a tag or linker. Residues count along the entry.", "UniProt P12109": "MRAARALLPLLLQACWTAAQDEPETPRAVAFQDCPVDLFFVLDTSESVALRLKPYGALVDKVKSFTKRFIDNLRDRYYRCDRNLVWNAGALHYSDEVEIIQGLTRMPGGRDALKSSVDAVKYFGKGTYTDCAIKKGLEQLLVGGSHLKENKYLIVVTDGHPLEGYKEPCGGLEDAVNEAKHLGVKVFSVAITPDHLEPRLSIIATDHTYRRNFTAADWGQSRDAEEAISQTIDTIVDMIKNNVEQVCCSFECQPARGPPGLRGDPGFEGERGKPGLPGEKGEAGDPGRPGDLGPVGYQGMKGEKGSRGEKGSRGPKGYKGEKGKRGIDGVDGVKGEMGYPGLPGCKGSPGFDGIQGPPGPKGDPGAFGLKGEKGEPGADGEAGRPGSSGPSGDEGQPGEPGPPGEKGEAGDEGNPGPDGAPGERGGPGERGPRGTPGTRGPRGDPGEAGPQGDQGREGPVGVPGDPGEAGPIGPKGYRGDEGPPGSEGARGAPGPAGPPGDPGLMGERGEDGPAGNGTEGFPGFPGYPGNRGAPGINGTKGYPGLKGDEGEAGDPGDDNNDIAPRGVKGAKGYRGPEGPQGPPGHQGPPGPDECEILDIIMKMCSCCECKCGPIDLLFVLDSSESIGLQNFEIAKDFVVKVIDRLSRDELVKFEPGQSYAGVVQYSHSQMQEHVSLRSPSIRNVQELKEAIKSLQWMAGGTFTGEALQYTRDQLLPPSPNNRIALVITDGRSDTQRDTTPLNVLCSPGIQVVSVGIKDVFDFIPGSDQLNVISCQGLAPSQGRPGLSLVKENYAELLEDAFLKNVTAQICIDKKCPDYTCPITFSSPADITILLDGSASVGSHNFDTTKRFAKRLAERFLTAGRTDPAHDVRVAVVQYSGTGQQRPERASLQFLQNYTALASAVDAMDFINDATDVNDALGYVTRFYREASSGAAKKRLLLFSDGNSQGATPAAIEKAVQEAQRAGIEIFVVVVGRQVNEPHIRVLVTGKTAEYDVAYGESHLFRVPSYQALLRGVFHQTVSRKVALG", "UniProt P07585, residues 17-359": "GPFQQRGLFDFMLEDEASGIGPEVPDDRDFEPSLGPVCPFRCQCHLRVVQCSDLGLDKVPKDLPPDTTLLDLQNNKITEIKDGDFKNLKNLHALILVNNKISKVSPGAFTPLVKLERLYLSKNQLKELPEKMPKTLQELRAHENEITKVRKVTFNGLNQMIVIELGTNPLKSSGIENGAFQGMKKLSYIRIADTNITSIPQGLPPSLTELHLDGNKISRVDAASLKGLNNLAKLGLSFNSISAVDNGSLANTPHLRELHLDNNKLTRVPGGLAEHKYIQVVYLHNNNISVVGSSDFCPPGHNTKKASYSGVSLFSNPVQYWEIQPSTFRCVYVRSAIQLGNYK", "UniProt P00924": "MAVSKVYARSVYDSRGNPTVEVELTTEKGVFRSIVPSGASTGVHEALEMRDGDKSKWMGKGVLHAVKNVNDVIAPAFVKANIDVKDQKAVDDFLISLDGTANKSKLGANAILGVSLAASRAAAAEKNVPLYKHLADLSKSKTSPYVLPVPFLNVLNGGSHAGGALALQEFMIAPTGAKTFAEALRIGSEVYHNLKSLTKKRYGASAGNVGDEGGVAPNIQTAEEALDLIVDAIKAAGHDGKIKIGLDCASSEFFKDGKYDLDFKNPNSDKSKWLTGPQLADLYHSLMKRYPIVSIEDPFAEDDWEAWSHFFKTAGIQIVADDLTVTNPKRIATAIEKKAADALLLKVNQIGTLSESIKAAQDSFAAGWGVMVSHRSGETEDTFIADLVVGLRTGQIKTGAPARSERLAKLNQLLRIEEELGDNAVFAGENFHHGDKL", "UniProt P16234, residues 24-524": "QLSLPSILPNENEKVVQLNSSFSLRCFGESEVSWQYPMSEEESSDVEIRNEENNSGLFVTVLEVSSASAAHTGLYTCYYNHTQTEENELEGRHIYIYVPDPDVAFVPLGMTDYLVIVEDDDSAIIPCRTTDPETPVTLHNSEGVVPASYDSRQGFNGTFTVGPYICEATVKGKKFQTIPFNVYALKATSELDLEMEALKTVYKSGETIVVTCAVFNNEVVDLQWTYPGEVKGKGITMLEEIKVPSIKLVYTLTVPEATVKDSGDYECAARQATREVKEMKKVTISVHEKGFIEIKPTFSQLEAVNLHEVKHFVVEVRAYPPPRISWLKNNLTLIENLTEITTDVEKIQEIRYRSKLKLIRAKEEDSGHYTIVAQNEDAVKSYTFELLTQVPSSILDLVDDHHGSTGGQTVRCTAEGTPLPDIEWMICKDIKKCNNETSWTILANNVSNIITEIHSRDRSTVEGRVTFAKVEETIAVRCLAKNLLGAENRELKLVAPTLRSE", "UniProt P42639": "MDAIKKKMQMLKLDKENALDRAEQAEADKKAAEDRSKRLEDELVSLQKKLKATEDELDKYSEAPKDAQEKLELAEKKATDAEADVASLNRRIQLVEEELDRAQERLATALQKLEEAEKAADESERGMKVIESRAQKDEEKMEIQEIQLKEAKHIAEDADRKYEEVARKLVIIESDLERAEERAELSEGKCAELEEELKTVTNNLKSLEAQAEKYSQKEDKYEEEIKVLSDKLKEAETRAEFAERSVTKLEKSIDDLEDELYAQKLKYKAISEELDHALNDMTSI", "UniProt P61769": "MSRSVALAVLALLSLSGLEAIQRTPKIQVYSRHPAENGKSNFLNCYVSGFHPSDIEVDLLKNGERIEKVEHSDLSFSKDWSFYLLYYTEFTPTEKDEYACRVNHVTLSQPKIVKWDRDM", "Lysyl oxidase propeptide (LOX-PP) (Pro24Leu) (P28300, form named)": "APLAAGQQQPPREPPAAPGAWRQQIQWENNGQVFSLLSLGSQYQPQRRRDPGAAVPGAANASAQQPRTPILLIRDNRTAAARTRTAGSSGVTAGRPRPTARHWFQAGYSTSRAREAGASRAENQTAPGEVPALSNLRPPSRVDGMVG"}, "source": "paper PMC6078952", "test_in_all_cases": "SPR; SPR imaging (SPRi, Biacore Flexchip): partners spotted in triplicate on a bare gold chip at 0.06 to 1 mg/ml; purified LOX-PP injected at 2 µM and recirculated for 20 min; PBS with 0.05% Tween 20, 25 °C; both purified", "key": {"Calreticulin": {"biological_target": "Calreticulin (UniProt P27797)"}, "Catalase": {"biological_target": "T1, Catalase (UniProt P00432)", "T1 sequence": "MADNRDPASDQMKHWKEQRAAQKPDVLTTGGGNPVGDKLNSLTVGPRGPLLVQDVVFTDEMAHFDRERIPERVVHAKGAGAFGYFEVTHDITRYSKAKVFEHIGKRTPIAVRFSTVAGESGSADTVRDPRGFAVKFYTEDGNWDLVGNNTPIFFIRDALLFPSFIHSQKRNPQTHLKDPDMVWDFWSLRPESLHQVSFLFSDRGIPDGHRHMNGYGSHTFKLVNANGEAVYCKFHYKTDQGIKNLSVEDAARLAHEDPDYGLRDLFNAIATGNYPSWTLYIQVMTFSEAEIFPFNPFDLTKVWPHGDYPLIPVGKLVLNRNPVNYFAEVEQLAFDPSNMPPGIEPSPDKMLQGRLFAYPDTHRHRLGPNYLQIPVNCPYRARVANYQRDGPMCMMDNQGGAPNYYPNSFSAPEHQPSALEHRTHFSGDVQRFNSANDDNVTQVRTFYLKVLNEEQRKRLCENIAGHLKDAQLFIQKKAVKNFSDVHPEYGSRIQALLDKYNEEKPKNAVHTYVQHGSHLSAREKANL"}, "Collagen VI": {"biological_target": "Collagen VI (UniProt P12109)"}, "Decorin": {"biological_target": "Decorin (UniProt P07585)"}, "Enolase": {"biological_target": "Enolase (UniProt P00924)"}, "Glypican 5": {"biological_target": "T2, Glypican 5 (UniProt P78333)", "T2 sequence": "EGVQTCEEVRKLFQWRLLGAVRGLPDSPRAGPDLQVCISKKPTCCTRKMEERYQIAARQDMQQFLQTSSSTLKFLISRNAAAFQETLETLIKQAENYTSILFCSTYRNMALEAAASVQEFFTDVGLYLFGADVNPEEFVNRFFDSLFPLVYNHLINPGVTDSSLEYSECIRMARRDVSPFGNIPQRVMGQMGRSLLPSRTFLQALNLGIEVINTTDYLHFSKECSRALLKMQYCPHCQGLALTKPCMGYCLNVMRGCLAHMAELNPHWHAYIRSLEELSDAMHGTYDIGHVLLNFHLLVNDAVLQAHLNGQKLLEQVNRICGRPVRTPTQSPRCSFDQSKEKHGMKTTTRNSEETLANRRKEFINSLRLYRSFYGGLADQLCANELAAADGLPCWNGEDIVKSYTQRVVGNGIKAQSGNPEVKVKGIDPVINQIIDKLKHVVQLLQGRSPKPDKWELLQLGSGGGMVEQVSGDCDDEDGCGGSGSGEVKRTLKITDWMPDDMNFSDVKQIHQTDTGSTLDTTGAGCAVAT"}, "Integrin α5β1 ectodomain": {"biological_target": "Integrin α5β1 ectodomain (UniProt P08648)"}, "[1]": {"biological_target": "T3, Latent transforming growth factor β binding protein 1 (4-7 EGF-like domains) (UniProt Q14766)", "T3 sequence": "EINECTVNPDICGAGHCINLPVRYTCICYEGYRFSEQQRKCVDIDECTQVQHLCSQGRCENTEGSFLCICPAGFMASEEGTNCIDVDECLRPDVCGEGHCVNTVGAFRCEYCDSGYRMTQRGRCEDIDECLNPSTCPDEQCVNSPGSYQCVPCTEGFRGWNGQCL"}, "[2]": {"biological_target": "Platelet-derived growth factor receptor alpha (PDGFRα) (UniProt P16234)"}, "[3]": {"biological_target": "Platelet-derived growth factor receptor beta (PDGFRβ), mutant Glu241Asp (UniProt P09619)"}, "Tropomyosin": {"biological_target": "Tropomyosin (UniProt P42639)"}, "β-2 microglobulin": {"biological_target": "β-2 microglobulin (UniProt P61769)"}}, "note": "These are yes or no findings as the source states them, for the method shown. Some entries that bind do so weakly or less than the wild type."}
{"substance": "Lysyl oxidase propeptide (LOX-PP) (Pro24Leu) (from UniProt P28300 22-168) (domain or fragment)", "values": [{"measurement": "binding", "setting": "Calreticulin", "result": "no binding (tested: 2 µM)"}, {"measurement": "binding", "setting": "Catalase", "result": "no binding (tested: 2 µM)"}, {"measurement": "binding", "setting": "Collagen VI", "result": "no binding (tested: 2 µM)"}, {"measurement": "binding", "setting": "Decorin", "result": "no binding (tested: 2 µM)"}, {"measurement": "binding", "setting": "Enolase", "result": "no binding (tested: 2 µM)"}, {"measurement": "binding", "setting": "Glypican 5", "result": "no binding (tested: 2 µM)"}, {"measurement": "binding", "setting": "Integrin α5β1 ectodomain", "result": "no binding (tested: 2 µM)"}, {"measurement": "binding", "setting": "[1]", "result": "binds"}, {"measurement": "binding", "setting": "[2]", "result": "no binding (tested: 2 µM)"}, {"measurement": "binding", "setting": "[3]", "result": "no binding (tested: 2 µM)"}, {"measurement": "binding", "setting": "Tropomyosin", "result": "no binding (tested: 2 µM)"}, {"measurement": "binding", "setting": "β-2 microglobulin", "result": "no binding (tested: 2 µM)"}]}
